According to article PMC12040169 (PLOS Biology, 2025):
Some of the results follow. Peptide text beside a SMILES is read from it. * marks the point of attachment. Hydrocinnamoyl = O=C(CCc1ccccc1)*

The compounds below were run on T1, C. trachomatis L2/434/Bu expressing GFP (CTL2-GFP). Conditions: total inclusion area; 28.5 h, 10 µM; inhibitor.
T1 construct: L2/434/Bu GFP intracellular growth in HeLa cells
Set-up: species or system HeLa; C. trachomatis total inclusion area by high-content imaging, normalised to DMSO
Outline: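 High-content imaging followed the bulk GFP/resorufin measurement: fixed, Hoechst-stained cells were scored for GFP inclusions and host nuclei per well. Total inclusion area and count served as growth proxies, nuclei number as the viability proxy. MIC calculation matched the bulk assay.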

SMILES	% of control remaining
CCc1ccc(CN(C(=O)c2cc(OC)c(OC)c(OC)c2)C2CCS(=O)(=O)C2)cc1 (stereo not drawn) [CBK293961]	104.067
COc1nc2ccn(CCN3C(=O)CCC3=O)c(=O)c2cc1C#N [CBK307422]	96.7645
O=C(O)CNC(=O)CNC(=O)CCc1ccccc1 [CBK286874] (Hydrocinnamoyl-Gly-Gly-OH)	103.668
Cc1cc(C2CCCCCN2C(=O)c2cccc(F)c2)on1 (stereo not drawn) [CBK285448]	75.3617
CS(=O)(=O)N1CC2(CCN(CCCCC3NC(=O)NC3=O)CC2)c2ccccc21 (stereo not drawn) [CBK126684]	90.7461
CC(C)(C)c1ccc(OCC(=O)Nc2ccc(OCC(=O)O)cc2)cc1 [CBK287013]	93.8848
Cc1nc2c(c(=O)[nH]1)CC[C@@H]1CN(C(=O)CCc3ccccc3)C[C@H]21 [CBK284414]	77.5282
O=C1CCCC[C@]2(CN(Cc3ccccc3)C[C@H]2c2ccccn2)N1 [CBK283340]	107.725
CSCc1ccc(C(=O)Nc2cc(C(=O)O)ccc2C)cc1 [CBK297107]	82.3698
CCn1c(=O)oc2cc(NC(=O)NCCN3CCCCC3CO)ccc21 (stereo not drawn) [CBK306565]	66.0453
CCc1nc2ccc(C(=O)N3CCCCC3)cn2c1N(C)C(=O)c1cccc(OC)c1 [CBK146392]	91.3631
CC12CCC(C(=O)N(CC(O)Cn3c4ccc(Br)cc4c4cc(Br)ccc43)C1=O)C2(C)C (stereo not drawn) [CBK262449]	99.9913
COc1ccccc1-n1c(C)c(C(C)=O)c2cc(O)ccc21 [CBK115320]	88.5244
O=C(NC[C@H]1CC[C@H](C(=O)O)CC1)c1cc2ccccc2[nH]1 [CBK287069]	99.3201
CNC(=O)C1(Cc2ccccc2-c2cccs2)CCN(C(=O)COc2ccccc2)CC1 [CBK285684]	123.778
O=S(=O)(Nc1nnn[nH]1)c1ccccc1Br [CBK062386]	97.0182
O=C(c1ccccc1F)[C@H]1CCCN(C(=O)c2cc(C3CC3)n[nH]2)C1 [CBK284330]	72.2694
Cc1ccc(OCC(=O)N2CCN(S(=O)(=O)c3ccc4ccccc4c3)CC2)cc1 [CBK264200]	101.957
c1ccc(CCN2CCN(Cc3ncc[nH]3)CC2)cc1 [CBK138328]	80.7793
CCCc1ccc(S(=O)(=O)Nc2ccc(C(=O)O)cc2)cc1 [CBK034044]	78.4561
O=C(CCC(=O)c1ccc2c(c1)OCCO2)OCC(=O)c1ccc(F)cc1 [CBK264679]	105.427
O=C(Nc1ncn(CC(=O)N2CCCCCC2)n1)c1ccsc1 [CBK304974]	134.041
CN(C)C(=O)[C@H]1CC[C@]2(CC1)CNC(=O)c1ccccc1O2 [CBK284894]	125.954
CC1CN(Cc2nc3c(c(=O)n(C)c(=O)n3C)n2CCCO)CC(C)O1 (stereo not drawn) [CBK269298]	101.529
c1csc(-c2nccnc2OC2CCCCC2)c1 [CBK107060]	101.567
CCOc1ccc(-c2n[nH]c(C)c2-c2ccc(OC)c(OC)c2)c(O)c1 [CBK288106]	37.8264

SMILES	% of control remaining
COc1cc(C)c(Nc2cc(-c3ccc(CC(C)C)cc3)ncn2)cc1OC [CBK090785]	127.032
CCC(CN1CCOCC1)NC(=O)Cc1coc2c(C)c(C)ccc12 (stereo not drawn) [CBK282813]	87.2665
CCOC(=O)C1(C2CCCCC2)CCN(C(=O)Cc2ccc(Cl)c(Cl)c2)CC1 [CBK136922]	98.4748
N#Cc1cc(Nc2ccc(Cc3ccncc3)cc2)c([N+](=O)[O-])cc1C#N [CBK264090]	115.125
CCCc1nnc(NC(=O)CN2CCc3c(c(CO)nn3C)C2)s1 [CBK307172]	46.8358
Cc1cc(OCCCNCCO)ccc1Cl [CBK262230]	135.848
CCn1cc(-c2cncn2CCOc2ccc(Cl)cc2)cn1 [CBK281776]	108.566
CC(=O)Nc1ccc(OCC(O)Cn2cnc3cc(C)c(C)cc32)cc1 (stereo not drawn) [CBK304545]	68.4949
COc1ccc(C(NC(=O)c2ccc(Cn3nc(C)cc3C)o2)c2ccccc2)cc1 (stereo not drawn) [CBK285578]	95.6369
CN(Cc1nc(-c2ccncc2)no1)S(=O)(=O)c1ccc(Br)cc1 [CBK268598]	82.3135
COc1ccc(CNc2cncc(-c3cncc(OC)c3)n2)cc1 [CBK065388]	123.839
Cc1nn(C)c(C)c1CN(C)C(=O)CCC(C)N1CCCC1 (stereo not drawn) [CBK282001]	88.2603
CC(=O)NC(CC(=O)N1CCc2sccc2C1c1ccccc1)c1ccc(F)cc1 (stereo not drawn) [CBK285548]	93.2008
Cc1c(-c2ccc(N(C)C)nc2)c(C(F)(F)F)nn1C [CBK307320]	100.109
Cc1[nH]c2ccccc2c1C(=O)CSc1nc2ccccc2o1 [CBK266339]	96.9719
Cc1n[nH]c(=O)c2nc(-c3ccc(=O)[nH]n3)[nH]c12 [CBK008745]	65.7773
CN(C)c1ccc(-c2nc(C(F)(F)F)nn2C)cn1 [CBK307202]	84.4999
CCNC(=O)N1CC2(CCN(Cc3nc4ccccc4[nH]3)CC2)c2ccccc21 [CBK126693]	42.1307
Cn1ccnc1C1(O)CCN(C(=O)c2ccccc2F)CC1 [CBK283536]	49.8758
C[C@H](Nc1cncc(-c2cccc3ccccc23)n1)c1ccccc1 [CBK065654]	119.15
Cc1ccc(-n2ncc3c(Nc4c(C)n(C)n(-c5ccccc5)c4=O)ncnc32)c(C)c1 [CBK294449]	96.4818
COc1ccc(OCC(=O)Nc2ccc(CN3CCOCC3)cc2)cc1 [CBK269686]	81.608
Cc1nc(CN2CCN(c3cccc(C(F)(F)F)n3)CC2)cs1 [CBK304709]	114.121
C/C(=N/NC(N)=S)c1ccccc1OCC(=O)O [CBK007123]	64.2678
Cc1ccc(CNC(=O)CCC(=O)O)cc1 [CBK058951]	140.197
